We go through 115 sequences from the BET-seq Pho4 binding data (Le et al. 2018).

This is one part of the list. These are noisy estimates, calculated here from bound and input reads.

The experiment concerns the target T1, Pho4 (S. cerevisiae) (UniProt P07270).
T1 sequence: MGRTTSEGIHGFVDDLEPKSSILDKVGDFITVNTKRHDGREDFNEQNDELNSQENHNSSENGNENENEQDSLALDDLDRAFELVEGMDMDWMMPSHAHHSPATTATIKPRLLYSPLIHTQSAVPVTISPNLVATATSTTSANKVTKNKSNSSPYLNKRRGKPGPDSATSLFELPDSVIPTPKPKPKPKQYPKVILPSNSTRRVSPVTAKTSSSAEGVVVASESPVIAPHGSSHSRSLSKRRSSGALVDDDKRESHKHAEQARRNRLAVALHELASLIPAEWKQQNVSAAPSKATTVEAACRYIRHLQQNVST
Kind of experiment: relative binding free energy (BET-seq); higher = weaker binding. The conditions noted are these: reference: library average.
As for TGGAGCACGTGGAGTG, the “relative binding free energy” value is -0.02 kcal/mol.

On to TTTTACACGTGAGTTT, for which the “relative binding free energy” value is 0.4 kcal/mol.

In the case of AAAATCACGTGAGGGA, the “relative binding free energy” value was 0.35 kcal/mol.

Turning to TAGTACACGTGTAGTG, the “relative binding free energy” value is 0.16 kcal/mol.

Turning to GTCAGCACGTGGGGCA, the “relative binding free energy” value is -0.15 kcal/mol.

For the sequence ATTTGCACGTGTGGCA, the “relative binding free energy” value was 0.08 kcal/mol.

Turning to GGAGGCACGTGCGTGT, the “relative binding free energy” value was -0.1 kcal/mol.

As for TGCATCACGTGATTTT, the “relative binding free energy” value is 0.3 kcal/mol.

Take GATTGCACGTGGGATT: the “relative binding free energy” value is 0.08 kcal/mol.

Take TCAGACACGTGTTTGT: the “relative binding free energy” value was -0.06 kcal/mol.

On to ACTGTCACGTGGGAGT, for which the “relative binding free energy” value is -0.05 kcal/mol.

For the sequence GTCATCACGTGTGATT, the “relative binding free energy” value came out at 0.19 kcal/mol.

Take ACTTTCACGTGGATTG: the “relative binding free energy” value turned out to be 0.21 kcal/mol.

Take GTTGGCACGTGGGGAA: the “relative binding free energy” value was -0.16 kcal/mol.

As to TTGATCACGTGTGGTA, the “relative binding free energy” value was 0.21 kcal/mol.

Consider TGGTACACGTGATCGG, for which the “relative binding free energy” value was found to be 0.21 kcal/mol.

As for GCTTTCACGTGGTGGG, the “relative binding free energy” value was found to be 0.28 kcal/mol.

With TCTAGCACGTGTTTTA, the “relative binding free energy” value was -0.08 kcal/mol.

In the case of AATTGCACGTGGGTGC, the “relative binding free energy” value is -0.13 kcal/mol.

In the case of TGGTACACGTGAAATT, the “relative binding free energy” value was 0.26 kcal/mol.

Turning to GGGGGCACGTGAGGAA, the “relative binding free energy” value is 0.11 kcal/mol.

As to TGGAGCACGTGATGGT, the “relative binding free energy” value was 0.06 kcal/mol.

As to AAGGTCACGTGTGGGC, the “relative binding free energy” value was determined as 0.12 kcal/mol.

On to AGAGGCACGTGTTAAT, for which the “relative binding free energy” value was -0.04 kcal/mol.

Take GTAGGCACGTGAGGAA: the “relative binding free energy” value came to 0.14 kcal/mol.

In the case of GTAAGCACGTGGCGGA, the “relative binding free energy” value was -0.13 kcal/mol.

As for GTGGACACGTGATTGA, the “relative binding free energy” value worked out at 0.17 kcal/mol.

With GATCACACGTGGAGTT, the “relative binding free energy” value came to 0.41 kcal/mol.

In the case of ATTCGCACGTGTAGTT, the “relative binding free energy” value came to 0.06 kcal/mol.

Regarding GTGAACACGTGAGGGT, the “relative binding free energy” value was found to be 0.24 kcal/mol.

Take AGAGTCACGTGGCGTG: the “relative binding free energy” value was -0.03 kcal/mol.

On to AAAGGCACGTGGTTTC, for which the “relative binding free energy” value is -0.1 kcal/mol.

Consider TAGTACACGTGGAGGT, for which the “relative binding free energy” value worked out at 0.06 kcal/mol.

For the sequence GGCTGCACGTGGACGG, the “relative binding free energy” value worked out at 0.15 kcal/mol.

On to TGTGGCACGTGTCAAT, for which the “relative binding free energy” value turned out to be 0.01 kcal/mol.

On to GTATGCACGTGGAGGC, for which the “relative binding free energy” value is -0.13 kcal/mol.

With TTAATCACGTGGTGGG, the “relative binding free energy” value is 0.06 kcal/mol.

On to GTAGGCACGTGTAGGT, for which the “relative binding free energy” value was -0.01 kcal/mol.

Regarding AAAGGCACGTGAAATT, the “relative binding free energy” value is 0.27 kcal/mol.

As to ATGTACACGTGGTGAG, the “relative binding free energy” value came to 0.02 kcal/mol.

As for TTTAGCACGTGTGTGG, the “relative binding free energy” value is -0.02 kcal/mol.

Consider GGTCTCACGTGTAAAT, for which the “relative binding free energy” value was found to be 0.46 kcal/mol.

Take GTAGGCACGTGGCCTG: the “relative binding free energy” value was -0.21 kcal/mol.

For GTAGCCACGTGTTTGG, the “relative binding free energy” value came to 0 kcal/mol.

As for TGGCGCACGTGTGAGA, the “relative binding free energy” value was 0.18 kcal/mol.

As for TGTGACACGTGAGGAG, the “relative binding free energy” value is 0.13 kcal/mol.

As to TTGTTCACGTGTGTAC, the “relative binding free energy” value turned out to be 0.24 kcal/mol.

For the sequence AAAGTCACGTGGGAAT, the “relative binding free energy” value was found to be 0.07 kcal/mol.

In the case of GGAATCACGTGGGAAT, the “relative binding free energy” value amounted to 0.23 kcal/mol.

In the case of ACGATCACGTGATTGG, the “relative binding free energy” value is 0.33 kcal/mol.

In the case of CATGACACGTGGTATT, the “relative binding free energy” value stood at 0.04 kcal/mol.

As for TTTCGCACGTGTGAAG, the “relative binding free energy” value is 0.1 kcal/mol.

ACGAGCACGTGAGTGG: the “relative binding free energy” value turned out to be 0.06 kcal/mol.

Take TGAGGCACGTGTTCGA: the “relative binding free energy” value was -0.18 kcal/mol.

Regarding TAGTTCACGTGGGTTC, the “relative binding free energy” value is 0.08 kcal/mol.

In the case of CTTTACACGTGGGCGT, the “relative binding free energy” value amounted to 0.06 kcal/mol.

For GATTACACGTGCTGGT, the “relative binding free energy” value was 0.05 kcal/mol.

Turning to TGGTTCACGTGGTGTT, the “relative binding free energy” value came out at 0.29 kcal/mol.

Regarding GGGTTCACGTGTCCGT, the “relative binding free energy” value came out at 0.22 kcal/mol.

On to TAGAGCACGTGGTCGG, for which the “relative binding free energy” value is -0.26 kcal/mol.

In the case of GGTCTCACGTGTAGAA, the “relative binding free energy” value is 0.43 kcal/mol.

With AGTGTCACGTGGGTTG, the “relative binding free energy” value was -0.1 kcal/mol.

Regarding ATATGCACGTGGTAAA, the “relative binding free energy” value turned out to be 0.01 kcal/mol.

Consider TGGGACACGTGTCGTA, for which the “relative binding free energy” value came to 0.07 kcal/mol.

For ATGAACACGTGGGATT, the “relative binding free energy” value was -0.05 kcal/mol.

On to GTCGGCACGTGGTATG, for which the “relative binding free energy” value is -0.12 kcal/mol.

For the sequence GGTGGCACGTGCGAGA, the “relative binding free energy” value is -0.06 kcal/mol.

Take AATGGCACGTGCGAGG: the “relative binding free energy” value was -0.21 kcal/mol.

On to TTCGACACGTGAATTG, for which the “relative binding free energy” value came out at 0.32 kcal/mol.

Take GTAAACACGTGTTTTA: the “relative binding free energy” value came to 0.02 kcal/mol.

With GGGTGCACGTGAGGAT, the “relative binding free energy” value is 0.31 kcal/mol.

AAGTACACGTGATATG: the “relative binding free energy” value worked out at 0.14 kcal/mol.

As for TTTATCACGTGACTGT, the “relative binding free energy” value turned out to be 0.39 kcal/mol.

Turning to AGGTGCACGTGTAAGC, the “relative binding free energy” value is -0.01 kcal/mol.

Turning to GGGAGCACGTGCTAGG, the “relative binding free energy” value is -0.31 kcal/mol.

In the case of AGCGTCACGTGCGGTT, the “relative binding free energy” value came out at 0.03 kcal/mol.

Take GGGGTCACGTGGATTC: the “relative binding free energy” value is 0.28 kcal/mol.

With GTATGCACGTGCGTAG, the “relative binding free energy” value was -0.05 kcal/mol.

With AAGCTCACGTGGTAGG, the “relative binding free energy” value turned out to be 0.28 kcal/mol.

As to GAATGCACGTGAAAGG, the “relative binding free energy” value amounted to 0.32 kcal/mol.

As to AGGGGCACGTGAAAAT, the “relative binding free energy” value worked out at 0.3 kcal/mol.

Take GATCGCACGTGGGGGC: the “relative binding free energy” value is -0.14 kcal/mol.

With AGTCACACGTGGGTGC, the “relative binding free energy” value is -0.15 kcal/mol.

Turning to CTCGGCACGTGTAGGT, the “relative binding free energy” value was -0.11 kcal/mol.

In the case of TTTCTCACGTGTTTTT, the “relative binding free energy” value is 0.24 kcal/mol.

With GTATTCACGTGAATGT, the “relative binding free energy” value is 0.45 kcal/mol.

In the case of GATCTCACGTGTGGTG, the “relative binding free energy” value worked out at 0.14 kcal/mol.

In the case of TAGGGCACGTGTACAG, the “relative binding free energy” value was -0.16 kcal/mol.

As to GGTGACACGTGTCGTT, the “relative binding free energy” value came out at 0.19 kcal/mol.

As to GCTGTCACGTGAGTAT, the “relative binding free energy” value is 0.24 kcal/mol.

Take TGGGCCACGTGAGGGG: the “relative binding free energy” value amounted to 0.05 kcal/mol.

On to GGATTCACGTGCGGGG, for which the “relative binding free energy” value amounted to 0.31 kcal/mol.

Regarding ATGCACACGTGGGTAG, the “relative binding free energy” value was -0.07 kcal/mol.

Regarding AGGGGCACGTGGTATT, the “relative binding free energy” value was -0.18 kcal/mol.

For the sequence ACTTGCACGTGTTGTT, the “relative binding free energy” value stood at 0.13 kcal/mol.

Turning to GGGTTCACGTGATTAC, the “relative binding free energy” value is 0.55 kcal/mol.

For AAGAGCACGTGTATTG, the “relative binding free energy” value was -0.15 kcal/mol.

For GTTAACACGTGTGTGA, the “relative binding free energy” value worked out at 0.08 kcal/mol.

Consider CGCGACACGTGAGGTT, for which the “relative binding free energy” value came out at 0.26 kcal/mol.

As to CGTCTCACGTGAGGTG, the “relative binding free energy” value was 0.37 kcal/mol.

Take TTTATCACGTGGCTGA: the “relative binding free energy” value was found to be 0.23 kcal/mol.

Consider TAGTACACGTGGGTCG, for which the “relative binding free energy” value is -0.23 kcal/mol.

Turning to TGAGTCACGTGTGAAG, the “relative binding free energy” value came to 0.11 kcal/mol.

For TTCGGCACGTGTTTGA, the “relative binding free energy” value was -0.23 kcal/mol.

With TAAAACACGTGGTAGG, the “relative binding free energy” value was -0.11 kcal/mol.

Consider TAGGTCACGTGTCGTG, for which the “relative binding free energy” value stood at 0.11 kcal/mol.

TTATTCACGTGGGCGA: the “relative binding free energy” value came to 0.12 kcal/mol.

Take GTTTCCACGTGAGGGT: the “relative binding free energy” value is 0.35 kcal/mol.

Consider TATTTCACGTGTTGCA, for which the “relative binding free energy” value came to 0.26 kcal/mol.

For TAAGCCACGTGGGCTG, the “relative binding free energy” value is -0.15 kcal/mol.

For GGCTGCACGTGATTTG, the “relative binding free energy” value stood at 0.41 kcal/mol.

As to TAAGACACGTGGATTG, the “relative binding free energy” value was 0.06 kcal/mol.

Turning to CAATGCACGTGGGGAT, the “relative binding free energy” value is -0.28 kcal/mol.

Take GATTTCACGTGGATTT: the “relative binding free energy” value was 0.27 kcal/mol.

In the case of AATCTCACGTGGTGTG, the “relative binding free energy” value amounted to 0.23 kcal/mol.
